Laboratory results reported in PubChem BioAssay AID1345082 (National Center for Advancing Translational Sciences (NCATS), 2018).
Hit rate of the full screen: of about 94,000 compounds, about 4,000 (4.3%) were called active. Inconclusive results, whose numbers are uncertain, are shown with a selection of clear calls. Calls follow the shape of the dose curve; as a rule, active = well fitted inhibition curve with a large enough effect; inconclusive = small, poorly fitted or top-dose-only effect; inactive = no such curve, though single readings can be large or run the other way. Where the call is inconclusive, the potency comes from a doubtful curve fit.

Experiment: Cytotoxic Profiling in NIH 3T3 Cell Line of Diverse Libraries Using Quantitative High-Throughput Screening; also: nearly all actives have a fitted effect of over 55% in size
Conditions: NIH 3T3 viability, CellTiter-Glo ATP luminescence, 48-72 h; activity change, negative = cytotoxicity: at 96.7 µM (top of the series); series mostly up to 96.7 µM
Outline: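 First NIH 3T3 cells are plated at 400 cells/well; next compound is pinned in; then plates incubate 48 or 72 hr at 37 °C; finally CellTiter-Glo is added and luminescence read after 10 min.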
% is scaled to controls: 0 for no effect and ±100 for the full control effect; potency is read from the fitted curve at half-maximal effect; tags tell the direction and shape of the fitted curve.

Row | SMILES | Potency | activity change, negative = cytotoxicity
1 | COC1CN(c2ccc(C)cc2)C12CCN(C(=O)COc1ccc(F)cc1)CC2 (stereo not given) | inconclusive: 50.1 µM [inhibitor, partial curve, poor fit] | –
2 | Cc1ccccc1NC(=O)C1CC(=O)N(c2n[nH]c3cccc(F)c23)C1 (stereo not given) | inactive | –
3 | CNC(=O)c1cnn2c1CN([S+](=O)([O-])c1c(C)noc1C)CC2 | inactive | –
4 | COc1ccc(C(=O)N2CCC3(CC2)NCCc2c3[nH]c3ccccc23)c(OC)n1 | inconclusive: 56.2 µM [inhibitor, partial curve, poor fit] | –
5 | COc1ccc(CN2CCC3(CC2)COCCN3C(=O)OCc2ccccc2)cc1O | inconclusive: 89.1 µM [inhibitor, partial curve] | –
6 | Cc1cccc(NC(=O)CN2C(=O)NC3(CCCCC3)C2=O)c1 | inactive | –
7 | O=C(COc1ccc(Cl)cc1)N1CCN(c2cc(-c3cccs3)[nH]n2)CC1 | active: 22.4 µM | –
8 | CCn1ccc(C(=O)N2CCC3(CC2)CN(C2CCC2)CC3CO)n1 (stereo not given) | inactive | –
9 | O=C(NC1CCCC1)N1CCN(CCn2nc3n(c2=O)CCCC3)CC1 | inactive | –
10 | O=C(NCCc1ccccc1F)c1ccc2nnc(-c3ccc(F)cc3)n2c1 | inconclusive: 50.1 µM [inhibitor, partial curve, poor fit] | –
11 | O=C(CC[C@H]1NC(=O)c2ccccc2NC1=O)Nc1ccncc1 | inconclusive: 35.5 µM [inhibitor, single point] | –
12 | COc1ccc(NC(=O)N2CCc3c(C(=O)NCc4ccncc4)cccc32)cc1 | inconclusive: 31.6 µM [inhibitor, partial curve, poor fit] | –
13 | COC[C@@H]1CN(C(=O)c2ccc(Cl)cc2OC)C[C@H]1C(N)=O | inactive | –
14 | C#CCN[C@H]1C[C@@H]2c3[nH]c4ccccc4c3C[C@@H](C(=O)OC)N2[C@H](c2ccc(F)cc2)C1 | inconclusive: 22.4 µM [inhibitor, full curve, poor fit] | –
15 | COc1ccccc1Cn1c(=O)c(C(=O)N2CCN(C(=O)c3ccccc3F)CC2)nc2cccnc21 | inactive | –
16 | CCCNC(=O)[C@@H]1Cc2cn(Cc3cc(C)on3)c3cccc(c23)[C@H](CC(C)C)N1 | inconclusive: 100 µM [inhibitor, partial curve] | –
17 | Cc1ccccc1N(C)C1CN(Cc2cccc3ccccc23)C1 | inconclusive: 50.1 µM [inhibitor, partial curve, poor fit] | –
18 | O=C(c1cccc(O)c1)N1CCc2c(n(Cc3cccnc3)n(-c3ccccc3)c2=O)C1 | inconclusive: 44.7 µM [inhibitor, full curve, poor fit] | –
19 | COCC(=O)N1CCN(C(=O)c2nc3cccnc3n(CC(C)C)c2=O)CC1 | inactive | –
20 | Cc1cn2nc(C(=O)NCc3cccc(Cl)c3)cc2c(N2CCCC2)n1 | inconclusive: 50.1 µM [inhibitor, partial curve, poor fit] | –
21 | CCN1c2cc(C(=O)Nc3ccc(F)c(C)c3)ccc2C(=O)N2CCCCCC21 (stereo not given) | inconclusive: 50.1 µM [inhibitor, partial curve, poor fit] | –
22 | CC1=C[C@@H](CNS(=O)(=O)c2ccccc2)[C@H](C(C)C)C[C@H]1CC(=O)NCc1ccccn1 | inconclusive: 56.2 µM [inhibitor, partial curve, poor fit] | –

Row | SMILES | Potency | activity change, negative = cytotoxicity
23 | O=C(C1CCN(Cc2ccccc2-c2ccccc2F)CC1)N1CCN(Cc2ccccc2)CC1 | active: 25.1 µM | –
24 | C=CCO[C@@H]1C[C@H]2C(=O)Nc3ccc(-c4ccccc4)cc3C(=O)N2C1 | inconclusive: 63.1 µM [inhibitor, full curve, poor fit] | –
25 | Cc1cc2cc(-c3c(C)noc3C)nc(Nc3ccccc3)c2o1 | active: 31.6 µM | –
26 | CCCc1nnc([C@H]2CCN(Cc3ccc(C)o3)C2)o1 | inconclusive: 141 µM [inhibitor, partial curve, poor fit] | –
27 | CC(=O)NCC1CN(S(=O)(=O)c2cccnc2)CC12CCCCC2 (stereo not given) | inactive | –
28 | CCOc1cccc2c1OC[C@@H]1CN(CCOC)C(=O)CCN(C(=O)CC)[C@H]21 | – | inconclusive: -30.1% [inhibitor]
29 | N#Cc1cccc(-c2c(C(=O)NC3CCCCCC3)nc3sccn23)c1 | inactive | –
30 | COc1ccccc1CN1CCC2(CC1)OC(=O)N(Cc1ccc(NC(C)=O)cc1)C2(C)c1ccccc1 (stereo not given) | inconclusive: 50.1 µM [inhibitor, partial curve, poor fit] | –
31 | COCCOc1ccc2c(n1)CCN(C(=O)Nc1ccccc1C)C2 | inactive | –
32 | Cc1nn(-c2ccccc2)c2c1C(C)N(C1CCN([S+](=O)([O-])c3cccs3)C1)C2=O (stereo not given) | inconclusive: 28.2 µM [inhibitor, partial curve, poor fit] | –
33 | CCCOc1ccc(CN2CCCC(COc3ccccc3C(=O)NC3CC3)C2)cc1 (stereo not given) | inconclusive: 44.7 µM [inhibitor, partial curve, poor fit] | –
34 | O=C(CCCc1c[nH]c2ccccc12)N1CCc2nc3cc(-c4ccccc4)[nH]n3c(=O)c2C1 | inconclusive: 79.4 µM [inhibitor, partial curve, poor fit] | –
35 | Cc1cccc(CNC(=O)c2cc3c(N(C)Cc4ccccc4)nc(C)cn3n2)c1 | inconclusive: 31.6 µM [inhibitor, full curve] | –
36 | CN(Cc1ccccc1)C(=O)c1cc(-c2cccc(F)c2)nc2c1cnn2C | inconclusive: 39.8 µM [inhibitor, partial curve, poor fit] | –
37 | COc1ccc(-c2ccccc2C(=O)NCc2ccc(F)cc2F)nn1 | inactive | –
38 | Cc1cccc(C(=O)N2CCCCCCNC(=O)[C@@H]3C[C@@H](C(=O)N4CCc5ccccc5C4)C[C@@H]32)c1 | inconclusive: 50.1 µM [inhibitor, partial curve, poor fit] | –
39 | O=C1COc2ccc(-c3cn[nH]c3)nc2CN1Cc1ccc(C(F)(F)F)cc1 | active: 10 µM | –
40 | Oc1cccc(-c2cnc3n[nH]c(-c4ccccc4)c3n2)c1 | inactive | –
41 | CN(C)C(=O)N1CCCC(c2nnc3n2CCNC3)C1 (stereo not given) | inactive | –
42 | O=C(COc1ccccc1)NC[C@H]1COCc2nc3cc(F)ccc3n21 | inconclusive: 79.4 µM [inhibitor, partial curve] | –
43 | Cc1cc(S(=O)(=O)N[C@H]2[C@H]3CCO[C@H]3[C@@H]2N2CCCCC2)n(C)n1 | inactive | –
44 | COc1ccc(Br)c(C(=O)N[C@@H]2C=C(C(=O)N[C@H](CC(C)C)C(N)=O)C[C@@H](O)[C@@H]2O)c1 | inactive | –

Row | SMILES | Potency | activity change, negative = cytotoxicity
45 | O=C(NCCOc1cccc2cccnc12)C1CCCN(C2CCCC2)C1 (stereo not given) | inactive | –
46 | N#Cc1ccc(C(=O)Nc2ccc3ncnc(N4CCCCC4)c3c2)cc1 | inconclusive: 50.1 µM [inhibitor, partial curve, poor fit] | –
47 | O=C(CN1C(=O)COc2ccc(C(=O)COc3ccc(F)cc3F)cc21)Nc1ccc(F)cc1 | inconclusive: 50.1 µM [inhibitor, partial curve, poor fit] | –
48 | Cc1cc2cc(-c3c(C)noc3C)nc(-c3ccc(CO)cc3)c2o1 | active: 28.2 µM | –
49 | O=C(NCc1ccncc1)c1ccc(Cn2ccn3nc4c(c3c2=O)CCCC4)cc1 | inconclusive: 44.7 µM [inhibitor, partial curve, poor fit] | –
50 | Cc1ccc([S+](=O)([O-])NC2CCN(Cc3ccc(-c4ccsc4)cc3)C2)cc1 (stereo not given) | inconclusive: 39.8 µM [inhibitor, partial curve, poor fit] | –
51 | O=C(c1ccc2c(c1)CCCO2)N1CCCn2nc(C(O)C3CCC3)cc2C1 (stereo not given) | inconclusive: 7.08 µM [inhibitor, full curve, poor fit] | –
52 | COc1ccccc1OCCCN1CCN(Cc2ccccc2)CC(O)C1 (stereo not given) | inactive | –
53 | Cc1ccccc1C(=O)N1CCC2(CC1)NC(=O)N(c1ccc(F)cc1)N2 | inconclusive: 39.8 µM [inhibitor, partial curve, poor fit] | –
54 | CNc1nccc(N2CCC(CC(=O)N3CCN(CCC#N)CC3)CC2)n1 | inactive | –
55 | CC1=C[C@@H](CNC(=O)CCCC(=O)O)[C@H](C(C)C)C[C@H]1Cc1nc2ccncc2[nH]1 | inactive | –
56 | COc1ccc(-n2c(=O)c3c(n2Cc2ccccc2)CN(C(=O)c2cccc(C#N)c2)CC3)cc1 | inconclusive: 31.6 µM [inhibitor, partial curve, poor fit] | –
57 | COc1ccc(C2(C(=O)NCCc3ncc(C)n3C3CC3)CC2)cc1 | inactive | –
58 | CN(Cc1cccc2ccccc12)C1CCOc2ccccc21 (stereo not given) | inconclusive: 79.4 µM [inhibitor, partial curve] | –
59 | CCCS(=O)(=O)NC[C@@H]1C=C(C)[C@H](Cc2nnc(-c3ccccc3F)o2)C[C@H]1C(C)C | active: 25.1 µM | –
60 | COc1cccc(-c2ccc(CN3CCCC3C(=O)NCC3CC3)cc2)c1 (stereo not given) | inconclusive: 44.7 µM [inhibitor, partial curve, poor fit] | –
61 | COc1ccc(-n2nc3n(c2=O)CCN(Cc2ccc(NC(C)=O)cc2)C3)cc1 | inconclusive: 44.7 µM [inhibitor, partial curve, poor fit] | –
62 | O=C(c1ccccc1)N1CCN(c2cc(-c3ccc(F)cc3)[nH]n2)CC1 | inconclusive: 22.4 µM [inhibitor, full curve] | –
63 | O=C(NCC1CCCO1)c1ccc2c(c1)CC(=O)N2Cc1ccccc1 (stereo not given) | inconclusive: 25.1 µM [inhibitor, full curve] | –
64 | Cc1cc(C(=O)NCC(C)C)c2c(C3CCCNC3)noc2n1 (stereo not given) | inactive | –
65 | COc1ccc(C(=O)N2C[C@@H]3OCC(=O)N(Cc4ccc(OC(F)(F)F)cc4)[C@@H]3C2)cc1 | inconclusive: 63.1 µM [inhibitor, partial curve, poor fit] | –
